This note sets out measurements from paper PMC5892938.

Some of the results follow. At the low end of the ranking, values are background and their order means little.

This experiment deals with GST-SBP-SLBP (stem-loop binding protein) (UniProt Q14493). Nature of the experiment: targeted RNA Bind-n-Seq.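 Also: DESeq read counts versus GST-SBP nonspecific binding control pulldown.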 As to conditions: RBNS binding buffer: 25 mM Tris pH 7.5, 150 mM KCl, 3 mM MgCl2, 0.1% Tween, 0.5 mg/mL BSA, 1 mM DTT; 27 nM protein, 750 pM RNA pool; temperature not stated; high values mean tight binding.
“GGUCACGUCUCAAUCAACUCUACUUCCAGGGAAACCCCUGGUUAUUUCAACAGCUCGCAGUCAAG”: the binding signal (log2 fold change) was found to be 0.0826. As for “GGUCACGUCUCAAUCAACUCUUCUUCCAGGGAAAUCCCUGGCUAUUUCAACAGCUCGCAGUCAAG”, the binding signal (log2 fold change) came out at 0.0517. The same measure for “GGUCACGUCUCAAUCAACUCAGUUUCAGGAGUUUCCUCCUGUUUUCUCAACAGCUCGCAGUCAAG”: -0.093; for “GGUCACGUCUCAAUCAACUCUUCGUCCAGGGAAAGCCCUGGUAUUUUCAACAGCUCGCAGUCAAG”: 0.0106. Next, “GGUCACGUCUCAAUCAACUCUAUGUCAGGAGUUUCCUCCUGCUUUCUCAACAGCUCGCAGUCAAG”: 0.00888; “GGUCACGUCUCAAUCAACUCUAACGAGGGGGGGAAAACCCCUUUACCCUCACAUUCAACAGCUCGCAGUCAAG”: -0.0442; “GGUCACGUCUCAAUCAACUCUCCCGAGGGGGGGAAAACCCCUUUACCCUCUACAUCAACAGCUCGCAGUCAAG”: -0.0493. Take “GGUCACGUCUCAAUCAACUCUAUGUCAGGAGUUUUCUCCUGCUUUUUCAACAGCUCGCAGUCAAG”: the binding signal (log2 fold change) is -0.0413. Turning to “GGUCACGUCUCAAUCAACUCAUUUCCAGGAGUUUUCUCCUGUUUUCUCAACAGCUCGCAGUCAAG”, the binding signal (log2 fold change) is -0.0578. Next, “GGUCACGUCUCAAUCAACUCUUUUCCAGGAGUUUACUCCUGUUUUUUCAACAGCUCGCAGUCAAG”: -0.172; “GGUCACGUCUCAAUCAACUCAACUUCCAGGGAAAACCCUGGCAAUUUCAACAGCUCGCAGUCAAG”: -0.034.

As to “GGUCACGUCUCAAUCAACUCAUCCUCAGGAGUUUACUCCUGCAAAGUCAACAGCUCGCAGUCAAG”, the binding signal (log2 fold change) came out at 0.0962.

Consider “GGUCACGUCUCAAUCAACUCAUCGGAGGGGGGGAAAACCCCUUUACCCUCACUCUCAACAGCUCGCAGUCAAG”, for which the binding signal (log2 fold change) is -0.18. With “GGUCACGUCUCAAUCAACUCACUAGAGGGGGGGAAAACCCCUUUGCCCUCGAUAUCAACAGCUCGCAGUCAAG”, the binding signal (log2 fold change) is -0.305.

Regarding “GGUCACGUCUCAAUCAACUCAUUCGAGGGGGGGAAAACCCCUUUACCCUCAAAAUCAACAGCUCGCAGUCAAG”, the binding signal (log2 fold change) was 0.129. As for “GGUCACGUCUCAAUCAACUCAUUCCCCAGGGAAACCCCUGGUAUAUUCAACAGCUCGCAGUCAAG”, the binding signal (log2 fold change) was 0.0773.

Take “GGUCACGUCUCAAUCAACUCAAUCUCCAGGGAAACCCCUGGCUAACUCAACAGCUCGCAGUCAAG”: the binding signal (log2 fold change) was 0.101. Next, “GGUCACGUCUCAAUCAACUCAUUUUCAGGAGUUUCCUCCUGCUAACUCAACAGCUCGCAGUCAAG”: 0.0221; “GGUCACGUCUCAAUCAACUCAAAAGAGGGGGGGAAAACCCCUUUGCCCUCAUUCUCAACAGCUCGCAGUCAAG”: -0.136; “GGUCACGUCUCAAUCAACUCAAUAGAGGGGGGGAAAACCCCUUUGCCCUCACUAUCAACAGCUCGCAGUCAAG”: -0.765.

Take “GGUCACGUCUCAAUCAACUCUACUUCAGGAGUUUACUCCUGUUAACUCAACAGCUCGCAGUCAAG”: the binding signal (log2 fold change) was -0.151.

In the case of “GGUCACGUCUCAAUCAACUCAUCUCCCAGGGAAACCCCUGGCUUAUUCAACAGCUCGCAGUCAAG”, the binding signal (log2 fold change) was -0.283. For “GGUCACGUCUCAAUCAACUCAAUCCCAGGAGUUUACUCCUGUAUUCUCAACAGCUCGCAGUCAAG”, the binding signal (log2 fold change) worked out at 0.00653. “GGUCACGUCUCAAUCAACUCUACUCCAGGAGUUUCCUCCUGUUAUCUCAACAGCUCGCAGUCAAG”: the binding signal (log2 fold change) turned out to be 0.0932. On to “GGUCACGUCUCAAUCAACUCUUUUUCAGGAGUUUACUCCUGUUUACUCAACAGCUCGCAGUCAAG”, for which the binding signal (log2 fold change) is 0.162. For “GGUCACGUCUCAAUCAACUCUUCCUCCAGGGAAACCCCUGGCAUUUUCAACAGCUCGCAGUCAAG”, the binding signal (log2 fold change) was -0.000228. Turning to “GGUCACGUCUCAAUCAACUCUUUUUCCAGGGAAACCCCUGGCAAAUUCAACAGCUCGCAGUCAAG”, the binding signal (log2 fold change) was -0.0371. Regarding “GGUCACGUCUCAAUCAACUCAACUCCAGGAGUUUACUCCUGUAAUUUCAACAGCUCGCAGUCAAG”, the binding signal (log2 fold change) is -0.142. As to “GGUCACGUCUCAAUCAACUCAAAAGAGGGGGGGAAAACCCCUUUGCCCUCAACAUCAACAGCUCGCAGUCAAG”, the binding signal (log2 fold change) was -0.0239. Turning to “GGUCACGUCUCAAUCAACUCAACUCCCAGGGAAAACCCUGGUUAUCUCAACAGCUCGCAGUCAAG”, the binding signal (log2 fold change) is -0.00437. “GGUCACGUCUCAAUCAACUCAUUUUCAGGAGUUUGCUCCUGUUUAUUCAACAGCUCGCAGUCAAG”: the binding signal (log2 fold change) turned out to be 0.186. Next, “GGUCACGUCUCAAUCAACUCUUCUUCCAGGGAAAACCCUGGCAUUUUCAACAGCUCGCAGUCAAG”: 0.0828; “GGUCACGUCUCAAUCAACUCAACUCCAGGAGUUUACUCCUGUUUUUUCAACAGCUCGCAGUCAAG”: -0.0977; “GGUCACGUCUCAAUCAACUCAAUUCCAGGAGUUUGCUCCUGUAUAUUCAACAGCUCGCAGUCAAG”: -0.0398.

On to “GGUCACGUCUCAAUCAACUCAUCCUCCAGGGAAAACCCUGGUUUUUUCAACAGCUCGCAGUCAAG”, for which the binding signal (log2 fold change) came to 0.0507. With “GGUCACGUCUCAAUCAACUCAGUCUCCAGGGAAAACCCUGGCAUAUUCAACAGCUCGCAGUCAAG”, the binding signal (log2 fold change) turned out to be 0.147. In the case of “GGUCACGUCUCAAUCAACUCUUCUCCAGGAGUUUUCUCCUGUAUUCUCAACAGCUCGCAGUCAAG”, the binding signal (log2 fold change) was -0.111.

Turning to “GGUCACGUCUCAAUCAACUCCUUAGAGGGGGGGAAAACCCCUUUGCCCUCCACAUCAACAGCUCGCAGUCAAG”, the binding signal (log2 fold change) was -0.263. Next, “GGUCACGUCUCAAUCAACUCAUUCUCAGGAGUUUCCUCCUGCUAUUUCAACAGCUCGCAGUCAAG”: 0.178; “GGUCACGUCUCAAUCAACUCUUCCUCCAGGGAAACCCCUGGCUAACUCAACAGCUCGCAGUCAAG”: -0.129.

As for “GGUCACGUCUCAAUCAACUCAGUUUCCAGGGAAAACCCUGGCAUAUUCAACAGCUCGCAGUCAAG”, the binding signal (log2 fold change) was determined as 0.18.

Consider “GGUCACGUCUCAAUCAACUCUAUUUCAGGAGUUUUCUCCUGUUAUUUCAACAGCUCGCAGUCAAG”, for which the binding signal (log2 fold change) came out at 0.104.

In the case of “GGUCACGUCUCAAUCAACUCAAUCUCCAGGGAAAUCCCUGGUAAAUUCAACAGCUCGCAGUCAAG”, the binding signal (log2 fold change) was 0.141. In the case of “GGUCACGUCUCAAUCAACUCUUUUUCAGGAGUUUACUCCUGCAUUUUCAACAGCUCGCAGUCAAG”, the binding signal (log2 fold change) turned out to be 0.0736. Next, “GGUCACGUCUCAAUCAACUCAUCGCCCAGGGAAAACCCUGGUAUUUUCAACAGCUCGCAGUCAAG”: 0.0628. For the sequence “GGUCACGUCUCAAUCAACUCAAUCCCCAGGGAAAACCCUGGCAUAGUCAACAGCUCGCAGUCAAG”, the binding signal (log2 fold change) was -0.107. Next, “GGUCACGUCUCAAUCAACUCAAUGUCAGGAGUUUCCUCCUGCUUUUUCAACAGCUCGCAGUCAAG”: 0.124.
